Assay results from the supplement of paper PMC10369915.
This is one part of the list. Rule as the data show it: active = 3.2 or more and inactive = the rest. Only a few entries rise above the background.

Biological target: SHP2 C-SH2 domain E139D
Experiment: enrichment score (SH2-bound / input frequency) (ratio); bacterial display of known human phosphotyrosine sites (pTyr-Var adds point mutants) read by sequencing; higher = stronger binding; tyrosines were phosphorylated by kinases first
Settings: peptide library: pTyr-Var
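Also: displayed peptides selected on beads carrying the immobilized SH2 domain, with library peptides lacking any tyrosine serving as negative controls.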

Binder	enrichment score
QTEGEYSSLEH [IDH3B_Y171]	inactive: 0.375
FLAVGYHKPHI [IDS_Y225]	inactive: 2.69
FLAVGYHKPRI [IDS_Y225_H229R]	inactive: 2.55
FLAVGYHKPYI [IDS_Y225_H229Y]	inactive: 1.48
FLAVGYHKPFI [IDS_Y225_H229Y_YF]	inactive: 2.18
FLAVGYHQPHI [IDS_Y225_K227Q]	inactive: 1.65
RIPFRYPKEFQ [IDS_Y234_H229R]	inactive: 0.442
IKIMGYSIRTI [IDS_Y490]	inactive: 1.55
IKIMGYFIRTI [IDS_Y490_S491F]	inactive: 1.87
IRTIDYRYTVW [IDS_Y497]	inactive: 2.21
IRTIDYRYTVC [IDS_Y497_W502C]	inactive: 0.933
IRTIDYRFTVC [IDS_Y497_W502C_YF]	inactive: 0.599
IRTIDYRYTVS [IDS_Y497_W502S]	inactive: 0.98
DGTVHYVDEKG [IFT140_Y216]	inactive: 0.675
VVLGSYDRLRV [IFT172_Y260]	inactive: 0.909
VVPGSYDRLRV [IFT172_Y260_L257P]	inactive: 0.75
ISITPYPAILH [IFT80_Y588]	inactive: 0.748
ISISPYPAILH [IFT80_Y588_T586S]	inactive: 0.629

Biological target: SHP2 C-SH2 domain wild-type
Experiment: as above
Settings: peptide library: pTyr-Var

Binder	enrichment score
QTEGEYSSLEH [IDH3B_Y171]	inactive: 0.517
FLAVGYHKPHI [IDS_Y225]	inactive: 2.43
FLAVGYHKPRI [IDS_Y225_H229R]	inactive: 2.23
FLAVGYHKPYI [IDS_Y225_H229Y]	inactive: 1.54
FLAVGYHKPFI [IDS_Y225_H229Y_YF]	inactive: 1.82
FLAVGYHQPHI [IDS_Y225_K227Q]	inactive: 1.86
RIPFRYPKEFQ [IDS_Y234_H229R]	inactive: 0.322
IKIMGYSIRTI [IDS_Y490]	inactive: 1.64
IKIMGYFIRTI [IDS_Y490_S491F]	inactive: 1.91
IRTIDYRYTVW [IDS_Y497]	inactive: 1.82
IRTIDYRYTVC [IDS_Y497_W502C]	inactive: 1.02
IRTIDYRFTVC [IDS_Y497_W502C_YF]	inactive: 0.916
IRTIDYRYTVS [IDS_Y497_W502S]	inactive: 0.813
DGTVHYVDEKG [IFT140_Y216]	inactive: 0.639
VVLGSYDRLRV [IFT172_Y260]	inactive: 0.941
VVPGSYDRLRV [IFT172_Y260_L257P]	inactive: 0.592
ISITPYPAILH [IFT80_Y588]	inactive: 0.737
ISISPYPAILH [IFT80_Y588_T586S]	inactive: 0.625

Biological target: SHP2 N-SH2 domain L43F
Experiment: as above
Settings: peptide library: pTyr-Var

Binder	enrichment score
QTEGEYSSLEH [IDH3B_Y171]	inactive: 0.37
FLAVGYHKPHI [IDS_Y225]	inactive: 2.81
FLAVGYHKPRI [IDS_Y225_H229R]	inactive: 2.01
FLAVGYHKPYI [IDS_Y225_H229Y]	inactive: 1.86
FLAVGYHKPFI [IDS_Y225_H229Y_YF]	inactive: 2
FLAVGYHQPHI [IDS_Y225_K227Q]	inactive: 1.65
RIPFRYPKEFQ [IDS_Y234_H229R]	inactive: 0.427
IKIMGYSIRTI [IDS_Y490]	inactive: 1.53
IKIMGYFIRTI [IDS_Y490_S491F]	inactive: 1.52
IRTIDYRYTVW [IDS_Y497]	inactive: 2.2
IRTIDYRYTVC [IDS_Y497_W502C]	inactive: 0.826
IRTIDYRFTVC [IDS_Y497_W502C_YF]	inactive: 0.63
IRTIDYRYTVS [IDS_Y497_W502S]	inactive: 0.966
DGTVHYVDEKG [IFT140_Y216]	inactive: 0.581
VVLGSYDRLRV [IFT172_Y260]	inactive: 1.01
VVPGSYDRLRV [IFT172_Y260_L257P]	inactive: 0.759
ISITPYPAILH [IFT80_Y588]	inactive: 0.681
ISISPYPAILH [IFT80_Y588_T586S]	inactive: 0.63

Biological target: SHP2 N-SH2 domain T42A
Experiment: as above
Settings: peptide library: pTyr-Var

Binder	enrichment score
QTEGEYSSLEH [IDH3B_Y171]	inactive: 0.531
FLAVGYHKPHI [IDS_Y225]	inactive: 2.02
FLAVGYHKPRI [IDS_Y225_H229R]	inactive: 1.99
FLAVGYHKPYI [IDS_Y225_H229Y]	inactive: 2.58
FLAVGYHKPFI [IDS_Y225_H229Y_YF]	active: 4.15
FLAVGYHQPHI [IDS_Y225_K227Q]	inactive: 2.04
RIPFRYPKEFQ [IDS_Y234_H229R]	inactive: 0.353
IKIMGYSIRTI [IDS_Y490]	inactive: 1.65
IKIMGYFIRTI [IDS_Y490_S491F]	inactive: 1.72
IRTIDYRYTVW [IDS_Y497]	inactive: 2.32
IRTIDYRYTVC [IDS_Y497_W502C]	inactive: 1.18
IRTIDYRFTVC [IDS_Y497_W502C_YF]	inactive: 0.625
IRTIDYRYTVS [IDS_Y497_W502S]	inactive: 0.986
DGTVHYVDEKG [IFT140_Y216]	inactive: 0.516
VVLGSYDRLRV [IFT172_Y260]	inactive: 0.864
VVPGSYDRLRV [IFT172_Y260_L257P]	inactive: 0.543
ISITPYPAILH [IFT80_Y588]	inactive: 0.655
ISISPYPAILH [IFT80_Y588_T586S]	inactive: 0.48

Biological target: SHP2 N-SH2 domain T52S
Experiment: as above
Settings: peptide library: pTyr-Var

Binder	enrichment score
QTEGEYSSLEH [IDH3B_Y171]	inactive: 0.368
FLAVGYHKPHI [IDS_Y225]	inactive: 2.66
FLAVGYHKPRI [IDS_Y225_H229R]	inactive: 2.35
FLAVGYHKPYI [IDS_Y225_H229Y]	inactive: 2.06
FLAVGYHKPFI [IDS_Y225_H229Y_YF]	inactive: 2.07
FLAVGYHQPHI [IDS_Y225_K227Q]	inactive: 1.83
RIPFRYPKEFQ [IDS_Y234_H229R]	inactive: 0.641
IKIMGYSIRTI [IDS_Y490]	inactive: 1.64
IKIMGYFIRTI [IDS_Y490_S491F]	inactive: 1.87
IRTIDYRYTVW [IDS_Y497]	inactive: 2.02
IRTIDYRYTVC [IDS_Y497_W502C]	inactive: 0.935
IRTIDYRFTVC [IDS_Y497_W502C_YF]	inactive: 0.518
IRTIDYRYTVS [IDS_Y497_W502S]	inactive: 1.03
DGTVHYVDEKG [IFT140_Y216]	inactive: 0.545
VVLGSYDRLRV [IFT172_Y260]	inactive: 0.823
VVPGSYDRLRV [IFT172_Y260_L257P]	inactive: 0.701
ISITPYPAILH [IFT80_Y588]	inactive: 0.765
ISISPYPAILH [IFT80_Y588_T586S]	inactive: 0.528

Biological target: SHP2 N-SH2 domain wild-type
Experiment: as above
Settings: peptide library: pTyr-Var

Binder	enrichment score
QTEGEYSSLEH [IDH3B_Y171]	inactive: 0.423
FLAVGYHKPHI [IDS_Y225]	inactive: 2.56
FLAVGYHKPRI [IDS_Y225_H229R]	inactive: 2.36
FLAVGYHKPYI [IDS_Y225_H229Y]	inactive: 1.73
FLAVGYHKPFI [IDS_Y225_H229Y_YF]	inactive: 2.26
FLAVGYHQPHI [IDS_Y225_K227Q]	inactive: 1.75
RIPFRYPKEFQ [IDS_Y234_H229R]	inactive: 0.483
IKIMGYSIRTI [IDS_Y490]	inactive: 1.97
IKIMGYFIRTI [IDS_Y490_S491F]	inactive: 1.98
IRTIDYRYTVW [IDS_Y497]	inactive: 1.93
IRTIDYRYTVC [IDS_Y497_W502C]	inactive: 0.937
IRTIDYRFTVC [IDS_Y497_W502C_YF]	inactive: 0.864
IRTIDYRYTVS [IDS_Y497_W502S]	inactive: 1.05
DGTVHYVDEKG [IFT140_Y216]	inactive: 0.649
VVLGSYDRLRV [IFT172_Y260]	inactive: 1.08
VVPGSYDRLRV [IFT172_Y260_L257P]	inactive: 0.664
ISITPYPAILH [IFT80_Y588]	inactive: 0.686
ISISPYPAILH [IFT80_Y588_T586S]	inactive: 0.695
